Assay results reported in PubChem BioAssay AID588342 (National Center for Advancing Translational Sciences (NCATS), 2011).
Hit rate of the full screen: of about 360,000 compounds, about 25,000 (6.9%) were called active. This list was built around the results that the source calls inconclusive (neither active nor inactive); the mix of calls is not that of the screen. The call rests on the fitted dose curve; in most records, active means well fitted inhibition curve with a large enough effect; inconclusive means small, poorly fitted or top-dose-only effect; inactive means flat fitted curve, though single readings scatter. A potency beside an inconclusive call is a rough fit, not a confirmed value.
Further: nearly all actives have a fitted effect of over 55% in size.
Potency means the concentration at half of the fitted maximal effect; tags describe the fitted curve by direction and shape.
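Wherever activity change, negative = inhibition is given: plate controls were vehicle for no effect and reference inhibitor for full effect.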

Each molecule was assayed against Luciferin 4-monooxygenase (Photinus pyralis) (UniProt P08659) (assay: qHTS profiling assay for firefly luciferase inhibitor/activator using purifed enzyme and Km concentrations of substrates (counterscreen for miR-21 project)). Settings: purified FLuc, luminescence inhibition; activity change, negative = inhibition: at 57.5 µM (top of the series).
Chain of UniProt P08659 (P08659 whole entry, looked up): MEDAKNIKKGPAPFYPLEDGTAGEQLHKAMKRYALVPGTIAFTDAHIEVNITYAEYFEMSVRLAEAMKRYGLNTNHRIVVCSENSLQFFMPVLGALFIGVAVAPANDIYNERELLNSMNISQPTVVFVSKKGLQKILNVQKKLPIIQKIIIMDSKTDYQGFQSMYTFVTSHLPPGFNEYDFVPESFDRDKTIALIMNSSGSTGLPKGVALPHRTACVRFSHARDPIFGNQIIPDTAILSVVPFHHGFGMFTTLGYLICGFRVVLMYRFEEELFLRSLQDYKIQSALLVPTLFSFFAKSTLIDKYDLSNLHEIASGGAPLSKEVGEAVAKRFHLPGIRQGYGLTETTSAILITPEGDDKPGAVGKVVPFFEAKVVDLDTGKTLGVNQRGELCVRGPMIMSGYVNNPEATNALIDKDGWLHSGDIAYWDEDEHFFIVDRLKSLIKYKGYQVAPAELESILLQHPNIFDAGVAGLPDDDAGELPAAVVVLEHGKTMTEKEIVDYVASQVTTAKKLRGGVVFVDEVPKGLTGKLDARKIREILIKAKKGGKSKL
In short: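 Biochemical qHTS of compounds, final roughly 60 µM downward over six points, against 10 nM purified firefly luciferase using Km concentrations of substrates (10 uM D-luciferin, 10 uM ATP) in Tris acetate pH 7.5 buffer; luminescence output.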
For Cc1ccc(O)c(C2=Nc3ccccc3N=C(c3cccc(F)c3)C2)c1, the Potency was inconclusive: 26.9 µM [inhibitor, partial curve, poor fit].
In the case of CCN(CC)c1ccc(NC(=O)C2CCCC2)cc1, the Potency was inconclusive: 26.9 µM [inhibitor, single point].
For O=C(N/C(=C\c1ccco1)C(=O)N1CCOCC1)c1ccco1, the “activity change, negative = inhibition” value was inactive: -4.09%.
In the case of Cn1ccnc1SCC(=O)c1ccc(OC(F)F)cc1, the Potency was inconclusive: 16.9 µM [inhibitor, partial curve].
In the case of CCOC(=O)C1CCN(C(=O)COC(=O)c2cccc(F)c2)CC1, the Potency was inconclusive: 21.3 µM [inhibitor, single point].
In the case of CC(=C/c1ccc(C(C)C)cc1)/C=N/NC(=O)Cn1nnnc1N, the Potency was inconclusive: 8.49 µM [inhibitor, partial curve, poor fit].
Cc1ccc2oc(-c3cc(NC(=O)c4cccs4)cc(C)c3O)nc2c1 was tested, and the Potency was inconclusive: 2.69 µM [inhibitor, full curve].
In the case of O=C(N/N=C/c1ccco1)c1cccc(S(=O)(=O)Nc2ccccc2Cl)c1, the Potency was inconclusive: 37.9 µM [inhibitor, partial curve, poor fit].
O=C(N1CCOCC1)N1CCN(S(=O)(=O)N2CCOCC2)CC1 was tested, and the “activity change, negative = inhibition” value was inactive: 1.76%.
In the case of COc1cc(N/N=C/c2ccc(N(C)C)cc2)ncn1, the Potency was active: 0.849 µM.
COc1ccc(Br)cc1CNC(=O)C1COc2ccccc2C1 (stereo unspecified) was tested, and the “activity change, negative = inhibition” value was inactive: -12.6%.
CCOCN(C(=O)Cn1cnc2cc(C)c(C)cc21)c1c(C)cccc1CC was tested, and the “activity change, negative = inhibition” value was inactive: -0.264%.
With COc1ccc(NC(=O)CN(C)C(=O)c2cc(-c3ccc(Cl)cc3)nc3ccccc23)cc1 the Potency was active: 23.9 µM.
For COc1ccc2[nH]c(=O)c(-c3noc(-c4ccccc4)n3)cc2c1, the Potency was inconclusive: 13.5 µM [inhibitor, partial curve].
In the case of O=C(NC1CCCC1)c1noc2c1CCCCC2, the Potency was inconclusive: 23.9 µM [inhibitor, partial curve].
In the case of COc1ccc(N/C=C/C(=O)c2cc(OC)c(OC)c(OC)c2)cc1, the Potency was active: 6.01 µM.
CN(C)/C=C(\C#N)C(=O)Nc1ccc(F)c(Cl)c1 was tested, and the Potency was inconclusive: 7.57 µM [inhibitor, partial curve].
For Cc1ccc(C)c(-c2nc3ccc(N)cc3[nH]2)c1, the Potency was inconclusive: 37.9 µM [inhibitor, single point].
In the case of CC1CCCCN1C(=O)CSc1nnc(-c2ccccc2Cl)o1 (stereo unspecified), the “activity change, negative = inhibition” value was inactive: -15.9%.
For C=CCn1c(N)c(C(=O)Nc2ccc(C)c(C)c2)c2nc3ccccc3nc21, the “activity change, negative = inhibition” value was inactive: 1.3%.
For CCOC(=O)c1oc2c(c1C)/C(=N/O)CCC2, the Potency was inconclusive: 30.1 µM [inhibitor, partial curve, poor fit].
With CN(C)c1cc[n+](Cc2ccccc2)cc1 the “activity change, negative = inhibition” value was inactive: -1.97%.
CNC(=O)CSc1nnc(NC(=O)Nc2ccccc2)s1 was tested, and the Potency was inconclusive: 23.9 µM [inhibitor, single point].
With COc1ccc(C(=O)NCC(c2ccc3c(c2)OCO3)N2CCN(c3ccc(F)cc3)CC2)cc1 (stereo unspecified) the “activity change, negative = inhibition” value was inactive: 1.77%.
For c1ccc2c(C3=NNC(=NC4CCCCC4)SC3)c[nH]c2c1, the Potency was inconclusive: 21.3 µM [inhibitor, partial curve, poor fit].
CCOC(=O)c1ccc(-n2c(CN3CCOCC3)nc3ccc([N+](=O)[O-])cc3c2=O)cc1 was tested, and the “activity change, negative = inhibition” value was inactive: 3.23%.
With O=C(N/N=C/c1ccc(C(=O)O)cc1)C1=NNC(c2ccccc2)(c2ccccc2)C1 the Potency was inconclusive: 37.9 µM [inhibitor, partial curve, poor fit].
CCn1c(CSc2nc3ccccc3[nH]2)nc2cc(C(=O)O)ccc21 was tested, and the Potency was inconclusive: 23.9 µM [inhibitor, single point].
In the case of COc1cc(NC(=S)NC(=O)c2ccco2)ccc1NC(=O)C(C)C, the Potency was inconclusive: 37.9 µM [inhibitor, single point].
In the case of COc1ccc2cc(-c3[nH]ncc3CN3CCCC3c3nonc3C)ccc2c1 (stereo unspecified), the Potency was inconclusive: 33.8 µM [inhibitor, partial curve, poor fit].
For Cn1cc(Cl)c(C(=O)NNC(=S)Nc2cccc(Cl)c2)n1, the Potency was inconclusive: 23.9 µM [inhibitor, single point].
With C=CCn1c(C)csc1=Nc1ccc(C(C)=O)cc1 the Potency was active: 19 µM.
With CCOC(=O)c1cc(-c2ccc(OC)cc2)n(CCC(=O)Nc2nc3ccc(OCC)cc3s2)c1C the “activity change, negative = inhibition” value was inactive: 5.11%.
In the case of COc1ccc(-c2nc(SCC(=O)N3CCCCC3C)n[nH]2)cc1 (stereo unspecified), the Potency was inconclusive: 37.9 µM [inhibitor, single point].
In the case of Cc1ccc(C(=O)Nc2cccc(NC(=O)c3ccc(C)o3)n2)o1, the Potency was active: 15.1 µM.
For O=C(NC(=S)Nc1ccccn1)c1cccc([N+](=O)[O-])c1, the Potency was active: 23.9 µM.
With COCc1cc(C)nc(OC)c1C(N)=O the “activity change, negative = inhibition” value was inactive: 0.389%.
With CCC1CCCCN1C(=O)Cn1c(=O)cc(C(F)(F)F)c2c(C)nn(C)c21 (stereo unspecified) the “activity change, negative = inhibition” value was inactive: -7.83%.
With O=C(Nc1cc(Br)ccc1O)c1cnn2c(C(F)F)cc(C3CC3)nc12 the “activity change, negative = inhibition” value was inactive: 1.21%.
With COc1ccc(OC)c(NC(=O)Cc2c(C(=O)O)n(C)c3ccc(C)cc23)c1 the Potency was inconclusive: 26.9 µM [inhibitor, single point].
For CSc1ccc(/C=N/n2c(C)cc(C)cc2=O)cc1, the Potency was active: 15.1 µM.
In the case of CC(C)c1ccc(C(=O)NC(=S)Nc2ccc3[nH]c(=O)[nH]c3c2)cc1, the Potency was inconclusive: 2.69 µM [inhibitor, partial curve, poor fit].
With CCc1ccc(S(=O)(=O)c2c(C(=O)c3ccccc3)cnc3ccc(CC)cc23)cc1 the “activity change, negative = inhibition” value was inactive: -2.53%.
CCOCCCNC(=O)c1c(NC(=O)Cc2coc3ccc(C)cc23)sc2c1CCC2 was tested, and the “activity change, negative = inhibition” value was inactive: -9.67%.
Cc1c(CC(=O)NCCCC(=O)O)c(=O)oc2cc3occ(-c4ccccc4)c3cc12 was tested, and the Potency was active: 19 µM.
CCc1ccccc1Nc1ccc(C(=O)O)cc1N was tested, and the Potency was inconclusive: 30.1 µM [inhibitor, single point].
O=C(COC(=O)Cn1[nH]c(=O)c2ccccc2c1=O)NNC(=O)c1ccccc1 was tested, and the “activity change, negative = inhibition” value was inactive: 4.88%.
In the case of O=C(NN1C(=O)C2C(C1=O)C1C=CC2C12CC2)c1ccncc1 (stereo unspecified), the “activity change, negative = inhibition” value was inactive: -5.98%.
For Cc1ccc(-c2noc(CN(C)C(=O)c3ccoc3C)n2)cc1, the Potency was inconclusive: 37.9 µM [inhibitor, partial curve, poor fit].
For Cc1ccc(N=Nc2c(C)[nH][nH]c2=O)c(C)c1, the Potency was active: 7.57 µM.
O=C(COC(=O)C12CC3CC(CC(C3)C1)C2)NCCc1ccccc1 was tested, and the “activity change, negative = inhibition” value was inactive: -12.2%.
With Cc1ccccc1NC(=O)c1ccc(Cl)c(S(=O)(=O)N2CCCCCC2)c1 the Potency was inconclusive: 19 µM [inhibitor, partial curve].
With COc1ccc2[nH]cc(CCNC(=O)CCC3CCCCC3)c2c1 the “activity change, negative = inhibition” value was inactive: -3.08%.
In the case of Cc1ccc(N=C2NC(=O)/C(=C/c3cccn3C)S2)cc1C, the Potency was inconclusive: 3.38 µM [inhibitor, full curve].
With O=C(NCCCO)Nc1ccc2nc(-c3ccco3)c(-c3ccco3)nc2c1 the Potency was active: 10.7 µM.
Cc1cc(=O)oc2cc(OCC(=O)OCC(=O)Nc3ccc(C(N)=O)cc3)ccc12 was tested, and the Potency was inconclusive: 37.9 µM [inhibitor, partial curve, poor fit].
With Cc1cccc(C)c1NC(=O)CC(NCCc1ccccc1)C(=O)O (stereo unspecified) the “activity change, negative = inhibition” value was inactive: 1.37%.
CC1=NNC(=O)C1CCC(=O)N/N=C\c1cccc(Cl)c1 (stereo unspecified) was tested, and the “activity change, negative = inhibition” value was inactive: 5.5%.
For Cc1cc(N/N=C/c2ccc(O)c(C)c2O)nc(-c2ccccc2O)n1, the Potency was inconclusive: 10.7 µM [inhibitor, partial curve].
In the case of COc1cc(C(=O)N/N=C/c2ccc(OC(=O)c3cccc(C)c3)cc2)ccc1O, the Potency was inconclusive: 37.9 µM [inhibitor, partial curve, poor fit].
CCCC(=O)Nc1nnc(SCC(=O)NCc2ccc3c(c2)OCO3)s1 was tested, and the “activity change, negative = inhibition” value was inactive: -4.19%.
In the case of COc1ccc(-c2noc(CN(C)Cc3ccc(C)o3)n2)cc1, the Potency was inconclusive: 37.9 µM [inhibitor, partial curve, poor fit].
In the case of COCCn1c(-c2ccc(OC)c(OC)c2)nc2ccccc21, the Potency was inconclusive: 37.9 µM [inhibitor, single point].
For O=C(O)c1cccc(-n2cccc2C=C2C(=O)c3ccccc3C2=O)c1, the Potency was active: 12 µM.
N#Cc1ccc(N2Cc3ccccc3C2=NC(=O)c2cccnc2Cl)cc1 was tested, and the Potency was inconclusive: 21.3 µM [inhibitor, single point].
In the case of Cc1ccc2nc(NC(=O)C3CCN(S(=O)(=O)c4cccnc4)CC3)sc2c1, the “activity change, negative = inhibition” value was inactive: -23.3%.
For N/C(=N\OC(=O)c1ccc(F)cc1)c1ccccc1, the Potency was active: 0.169 µM.
With COc1ccc(/C=C(\C#N)c2nc3ccccc3n2C)c(OC)c1 the Potency was active: 23.9 µM.
With Cc1ccc(Nc2nnc(SCC3CCCCO3)s2)cc1 (stereo unspecified) the Potency was inconclusive: 23.9 µM [inhibitor, partial curve].
With COc1ccc(NC(=O)C#Cc2ccccc2)cc1OC the Potency was inconclusive: 16.9 µM [inhibitor, partial curve].
O=c1/c(=C/c2ccccn2)sc2n1CN(c1ccccc1)CN=2 was tested, and the Potency was inconclusive: 16.9 µM [inhibitor, partial curve].
With CNC(=S)N/N=C/c1cn(CCOc2cccc(OC)c2)c2ccccc12 the Potency was inconclusive: 9.53 µM [inhibitor, partial curve].
O=C(CSc1ccc2c(c1)OCCO2)Nc1ccc2c(c1)OCO2 was tested, and the Potency was inconclusive: 23.9 µM [inhibitor, partial curve, poor fit].
O=C(NCc1cccnc1)C1CC(c2ccccc2O)=NO1 (stereo unspecified) was tested, and the “activity change, negative = inhibition” value was inactive: 11.7%.
In the case of CCOC(=O)N1CCN(C(=O)CNC(=O)c2nn(-c3ccc(OC)cc3)c(=O)c3ccccc23)CC1, the Potency was active: 3.79 µM.
In the case of CC(=O)c1ccc(NC(=O)c2cccc(S(=O)(=O)N3CCN(C)CC3)c2)cc1, the Potency was inconclusive: 23.9 µM [inhibitor, single point].
